Hit rate of the full screen: of about 360,000 compounds, about 17,000 (4.7%) were called active. This list was built around the results that the source calls inconclusive (neither active nor inactive); the mix of calls is not that of the screen. No stated cut-off is given here; in the data, active means activity change below about -50%; inconclusive means mostly about -30% to -49%; inactive means weaker than that.
Test: qHTS for Inhibitors of Inflammasome Signaling: IL-1-beta AlphaLISA Primary Screen
Conditions: THP-1 LPS/ATP IL-1B secretion, 16 h; at 57.5 µM, hits give low values
From the text: Inflammasomes are a set of intracellular multi-protein complexes that enable autocatalytic activation of inflammatory caspases and drive the innate immune response to counter harmful agents. […] A qHTS assay, based on AlphaLISA technology, was developed to screen the Molecular Libraries Small Molecule Repository (MLSMR) to look for novel inflammasome inhibitors. The assay detects IL-1B using AlphaLISA anti-IL-1B acceptor and donor beads. A decreased emission signal, indicating reduced IL-1B secretion, is the desired outcome for this assay. NIH Chemical Genomics Center [NCGC] NIH Molecular Libraries Probe Centers Network [MLPCN] MLPCN Grant: MH095513 Assay Provider: Shyam Biswal Ph.D., Johns Hopkins University Immunity. 2012 Jul 27;37(1):85-95. PMID: 22819042 [2] Curr Pharm Des. 2012;18(16):2320-8. PMID: 22390695
Three microliters containing 3000 THP-1 cells were dispensed into the wells of solid, white, tissue culture treated Greiner 1,536-well plates. Library compounds and positive control, Glyburide, were pin-transferred (23 nL) by a Kalypsys pin-tool equipped with a 1,536-pin array, resulting in final compound concentration ranges of 2.5 nM to 57.5 uM. After 1 hr of cell culture incubation (37 °C, 5% CO2), 1 microL of 1 microg/mL lipopolysaccharide (250 ng/mL, final) and 5 mM ATP (1.25 mM, final) were added to stimulate the cells. After 16 hr of cell culture incubation with the compounds, 1.5 uL of anti-IL-1B acceptor beads (6 ug/mL, final) and biotinylated antibody (0.6 nM, final) were added to the plate, followed by a 1 hr incubation at ambient temperature. To detect the secreted IL-1B, 1.5 uL of AlphaLISA SA-Donor beads (24 ug/mL, final) were added, followed by 30 min of incubation in the dark at ambient temperature. The AlphaLISA signal was read by a PerkinElmer EnVision plate reader with an ultrasensitive luminescence detector and 1536 Plate HTS AlphaScreen aperture (excitation of 680nm and emission of 615nm).
On the % scale 0 is the no-effect control and ±100 the full control effect.

Activity change, inactive:
COc1ccc2c(c1)CC/C(=C\c1ccc(OC)c(Cn3nc(C)cc3C)c1)C2=O 13.1%
Cc1ccc(S(=O)(=O)NC(=O)NC(C)Cc2ccccc2)cc1 (centres undefined) -4.55%
FC(F)(F)c1cnc(N2CCSCC2)c(Cl)c1 -4.74%
CN(C)S(=O)(=O)c1cc(NC(=O)COC(=O)C2CSC3(C)CCC(=O)N23)ccc1Cl (centres undefined) 1.43%
CCOC(=O)c1c(CSc2ccccc2)oc2cc(Br)c(O)c(CN(C)C)c12 -26%
NC(=S)NN=C1CCCCCCCCCC1 -0.977%
O=C(O)c1cc(-c2ccc3c(c2)OCO3)nc2ccccc12 28.1%
CC(C)(C)CC(C)(C)NC(=O)/C=C/C(=O)O -1.94%
O=C(NC(=S)NCC1CCCO1)c1ccc([N+](=O)[O-])cc1 (centres undefined) 22.2%
CCN(CC)C(=O)Oc1cc(=O)n2c3c(cccc13)CCC2 -2.7%
Cc1cc(OC2CCCCC2)nc(-c2ccccc2O)n1 44.7%
CCOC(=O)Nc1cccc(OCC(=O)Nc2ccccc2OC)c1 -11.9%
COc1ccc(OCCN2CCOCC2)cc1 15.7%
CSCCC(NC(=O)c1ccccc1Cl)C(=O)N1CCN(C(C)=O)CC1 (centres undefined) 2.02%

Activity change, active:
Nc1nc(Nc2ccccc2)nc2ccccc12 -113%
CCOC(=O)c1cc2c(ccn2C)n1CC(=O)N(Cc1ccccc1)c1ccccc1 -72.1%
CCOc1ccc(-c2csc(Cn3c(CN4CCN(C)CC4)nc4ccccc4c3=O)n2)cc1 -75.2%
CCN(CC)CCN(Cc1cc2ccc(C)cc2[nH]c1=O)C(=S)Nc1ccccc1C(=O)OC -76.6%
CCCOc1ccc(/C=C/C(=O)Nc2ccc([N+](=O)[O-])cc2)cc1 -86.5%
COc1cccc2sc(N(CCCN(C)C)C(=O)c3ccc(S(=O)(=O)N4CCCc5ccccc54)cc3)nc12 -50.3%
COC(=O)c1ccccc1NS(=O)(=O)c1ccc(NC(C)=O)cc1 -84.3%
COC(=O)C(=C/C(C)=C/c1cccnc1)C(=O)OC -95.2%
Fc1ccc(C2c3[nH]c4ccccc4c3CCN2Cc2cccn2-c2ncccn2)cc1 (centres undefined) -50.7%
Cc1nc2c(c(C)nn2-c2ccccc2)c(C)c1CCC(=O)Nc1ccc(CN2CCCC2)cc1 -97.1%

Activity change, inconclusive:
CC1CCCCN1CCNC(=O)CN1C(=O)CSc2ccc(S(=O)(=O)N3CCCCC3)cc21 (centres undefined) -41.2%
COCCCN=Cc1c(-c2ccccc2)[nH]n(-c2nc3ccccc3s2)c1=O -30.8%
COc1ccc2c(Cl)c(-c3nnc4n3CCCCC4)sc2c1 -31.5%
CCOc1ccc(NC(=O)NCCN2CCN(c3ccccc3F)CC2)cc1 -35.9%
O=C1NC(=S)N/C1=C/c1cccnc1 -31.5%
CCOCC(=O)Nc1nnc(C2CCCCC2)s1 -36.7%
COc1ccc(/C=C/C(=O)C(C(N)=O)=C2SCCS2)cc1 -44.4%
Cc1ccc(C(=O)Nc2ccc3c(c2)CCC3)cc1S(=O)(=O)N1CCOCC1 -41.4%
CC(=O)Nc1ccc(S(=O)(=O)N2CCN(C(=O)c3ncoc3-c3ccc(C)cc3)CC2)cc1 -32.3%
COc1ccc(CNC(=O)C(c2cccs2)N(Cc2ccco2)C(=O)Cc2cccs2)cc1 (centres undefined) -33.3%
CCOC(=O)[C@]12CCCC=C1N(Cc1cccc3ccccc13)C(=O)[C@H](CC(=O)NCCc1ccccc1OC)C2 -40.4%
CCCC(=O)Nc1ccc(Sc2ccc([N+](=O)[O-])cc2)cc1 -38.6%
Cc1ccc(CS(=O)Cc2ccc(C(=O)NCc3ccccc3Br)o2)cc1 (centres undefined) -31.2%
COc1ccc(-c2cc(C(F)(F)F)n3nc(C(=O)N4CCCCC4)cc3n2)cc1OC -46.3%
CC(C)C[C@@H](COCc1ccc(Cl)cc1)N1CCN(C(=O)c2ccc(C(F)(F)F)cc2)CCC1=O -35.1%
CCN(CC)C(=O)Cn1cc(C(=O)C(=O)N2CCN(c3ccc([N+](=O)[O-])cc3)CC2)c2ccccc21 -37.8%
CC(C)CNS(=O)(=O)c1ccc(NC(=O)Cn2nc(-c3ccc(F)cc3)ccc2=O)cc1 -44.4%
COc1ccc(C(=O)c2sc3nc(C)cc(-c4cccs4)c3c2N)cc1 -40.6%
CCOc1cc(NC(=O)c2ccccc2OC)c(OCC)cc1NC(=O)c1ccccc1 -34.7%
COc1cccc(-c2cnc3c(NC(C)=O)cc(-c4ccc(C(=O)NC5CC5)cc4)cn23)c1 -46.8%
O=C(OCc1cn([C@H]2C[C@H](c3ccc(Cl)cc3)N(C(=O)C3CCCCC3)C[C@@H]2O)nn1)c1ccccc1 -34.7%
CCOc1ccc(C2c3[nH]c4ccccc4c3C[C@H]3C(=O)N(C4CCN(Cc5ccccc5)CC4)CC(=O)N23)cc1OC (some centres undefined) -42.5%
O=C(NNc1cc(Cl)ccc1Cl)c1c(F)cccc1Cl -35%
CCOC(=O)c1c(N)sc(C(O)(C(F)(F)F)C(F)(F)F)c1-c1ccc(OC)cc1OC -43.1%
O=C(COc1ccc(Cl)cc1Br)N1CCN(S(=O)(=O)c2ccccc2)CC1 -41.7%
CCCc1cc(C(=O)Nc2ccc(C(=O)c3ccc(F)cc3)cc2)n(C)n1 -30.8%
O=C(Cc1ccc(NC(=O)C2CCN(C(=O)C3CCCCC3)CC2)cc1)Nc1ccc(C(=O)N2CCOCC2)cc1 -46.2%
Cc1ccc(S(=O)(=O)N2CCN(Cc3nc4ccccc4n3C)CC2)cc1 -36.2%
COC(=O)c1ccc(CSc2nc3ccc(S(=O)(=O)N4CCOCC4)cc3[nH]2)cc1 -34.4%
CCc1ncc(/C=C2\C(=O)Nc3ccccc32)[nH]1 -35.5%

— PubChem BioAssay AID743279 (National Center for Advancing Translational Sciences (NCATS), 2014)
